Screen size: about 340,000 compounds; about 12,000 (3.5%) were called active. Inconclusive means that the source gave no clear call. Such entries were picked first, then a sample of the others. Calls come from the whole dose curve; as a rule, active = well fitted inhibition curve with a large enough effect; inconclusive = small, poorly fitted or top-dose-only effect, or another doubt; inactive = no such curve, though single readings can be large or run the other way. No potency is given beside an inconclusive call; the fits are too rough.
Test: qHTS Assay for Inhibitors of Hepatitis C Virus (HCV)
Settings: Huh7.5.1 HCVcc-Cre (HCVcc is cell-culture hepatitis C virus) infection, luciferase reporter, 44 h; activity change, negative = inhibition: at 41.8 µM (top of the series) unless noted
Summary of the method: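 Infectious HCV cell culture screen: compound-treated cells (1,000/well, pre-plated 4 h) are infected with HCVcc-Cre at roughly 0.5 moi and grown 44 h. Infection is quantified by luciferase signal after 15 min substrate incubation at room temperature.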
% is set by controls: 0 for no effect and ±100 for the full control effect; potency is the fitted concentration of half-maximal effect; tags give direction and shape of the fitted curve.

Row | SMILES | activity change, negative = inhibition | Potency
1 | COC(=O)C1=NN(C(C)(C)CC(C)=O)C2C(=O)N(C3CCCCC3)C(=O)C12 (configuration not stated) | inactive: -4.57% | –
2 | Cc1ccc(CN2CCN(Cc3cnn(-c4ccc(F)cc4)c3)CC2CCO)o1 (configuration not stated) | inactive: 2.66% | –
3 | Nc1c(N(C(=O)Nc2ccc(Cl)c(Cl)c2)C2CCCC2)c(=O)[nH]c(=O)n1Cc1ccccc1 | – | active: 11.2 µM
4 | Nc1cc(Cl)cc2c1-c1ccc(Cl)cc1C2 | inconclusive: -41% [inhibitor] | –
5 | CCCc1nc2c([nH]1)C(c1cccnc1)C(C#N)=C(N)O2 (configuration not stated) | – | inconclusive [inhibitor, single point]
6 | CC(c1ccccn1)N(CCN(C)C)C(=S)Nc1cccc(F)c1 (configuration not stated) | – | inconclusive [inhibitor, single point]
7 | Cc1ccc(OCCn2cnc(Cl)c2Cl)cc1 | – | inconclusive [inhibitor, single point]
8 | COc1ccc(C(=O)C2CCN(CC(=O)Nc3ccc(C)cc3)CC2)cc1 | – | inconclusive [inhibitor, single point]
9 | COc1cc(OC)c(NC(=O)c2ccc3c(SCC(=O)O)c4c(nc3c2)CCCC4)cc1Cl | inactive: -28.6% | –
10 | CCN(c1ccccc1)S(=O)(=O)c1ccc(OC)c(NC(=O)CNC)c1 | – | inconclusive [inhibitor, single point]
11 | O=C(Nc1nn(Cc2ccc(Cl)cc2)cc1Br)c1ccc(COc2ccccc2Cl)o1 | – | inconclusive [inhibitor, single point]
12 | CCOC(=O)Cc1c(Sc2ccccc2)c2cc(C)ccc2n1C | inactive: -2.82% | –
13 | COCCn1c(=S)[nH]c2cc(C(=O)N3CCN(Cc4ccc5c(c4)OCO5)CC3)ccc2c1=O | – | active: 14.1 µM
14 | COc1ccc(CN2C(=O)CNC2=S)cc1 | inactive: 10.9% | –
15 | CCNC(=S)NNC(=O)c1csc(CC)c1 | inactive: 22.4% | –
16 | CN(CC1CCCN(CCc2ccc(Cl)cc2)C1)C(=O)c1ccco1 (configuration not stated) | – | inconclusive [inhibitor, single point]
17 | Cc1ccc(N=c2c([N+](=O)[O-])nn(-c3ccccc3)n2O)c(C)c1 | – | inconclusive [inhibitor, single point]
18 | Cc1ccccc1Oc1nnc(-c2cccs2)c2ccccc12 | – | inconclusive [inhibitor, partial curve]
19 | C=CCn1c(SCC(=O)Nc2ccc(C(=O)OC(C)C)cc2)nnc1-c1cccs1 | – | inconclusive [inhibitor, single point]
20 | Cc1ccc2oc(=O)c3cc(C(=O)NCCCN4C(C)CCCC4C)sc3c2c1 (configuration not stated) | – | inconclusive [inhibitor, partial curve]
21 | CCOCCOc1cccc(C(=O)NC(c2ccccc2)c2ccccc2)c1 | inactive: -13.9% | –
22 | CCCn1cc(CN2CCC(Cc3cccc(F)c3)(C(=O)OCC)CC2)c(C)n1 | – | inconclusive [inhibitor, single point]
23 | COc1ccc(-c2noc(CSc3nc(N)c(-c4ccccc4)c(=O)[nH]3)n2)cc1 | – | inconclusive [inhibitor, single point]
24 | O=C1C=C(c2ccc3[nH]ccc3c2)C[C@@H](c2ccc(Cl)cc2)C1 | – | inconclusive [inhibitor, single point]

Row | SMILES | activity change, negative = inhibition | Potency
25 | O=C(Cn1ccc([N+](=O)[O-])n1)Nc1nccs1 | inactive: 15.7% | –
26 | OC(COCc1cccs1)CN1CCN(c2cccc(C(F)(F)F)c2)CC1 (configuration not stated) | – | inconclusive [inhibitor, single point]
27 | CC(=O)Nc1ccc(S(=O)(=O)Nc2c(C)nn(-c3ccccc3)c2C)cc1 | – | inconclusive [inhibitor, partial curve]
28 | N#Cc1nc(-c2ccco2)oc1NCc1ccccc1Cl | – | inconclusive [inhibitor, single point]
29 | Cc1ccc(-c2ccccc2)n1-c1ccc(C(=O)O)cc1 | inactive: 2.63% | –
30 | Cc1ccc(C(=O)N2C(=S)C(c3ccc(F)cc3)=NC23CCN(C)CC3)cc1 | – | inconclusive [inhibitor, partial curve]
31 | CCc1ccc2[nH]c(=O)c(C(c3nnnn3CCOC)N3CCN(c4ccccc4)CC3)cc2c1 (configuration not stated) | inactive: 2.76% | –
32 | CCCCn1c(N)c(N(CC(C)C)C(=O)C2CSC3(C)CCC(=O)N23)c(=O)[nH]c1=O (configuration not stated) | inactive: 0.302% | –
33 | O=c1c2cc(Cl)ccc2[nH]c(=S)n1Cc1cccs1 | – | inconclusive [inhibitor, single point]
34 | O=C(Nc1ccc2oc(=O)ccc2c1)c1ccc(-c2ccc(Cl)cc2)o1 | inactive: 11.9% | –
35 | COCCCNC(=O)c1sc2ncnc(N3CCc4ccccc4C3)c2c1C | – | inconclusive [inhibitor, single point]
36 | O=C(Cc1ccc(Cl)cc1)Nc1cccc(S(=O)(=O)N2CCCCC2)c1 | – | inconclusive [inhibitor, single point]
37 | O=C(Nc1cccc(Cl)c1)OC1CN2CCC1CC2 (configuration not stated) | – | inconclusive [inhibitor, single point]
38 | CC1=CC2=NC(=O)/C(=C\c3ccc(-c4cccc(Cl)c4)o3)C(=N)N2O1 | – | inconclusive [inhibitor, partial curve, poor fit]
39 | CN(C)c1ccc(N2C(=NC(=O)C3CCCO3)SC3CS(=O)(=O)CC32)cc1 (configuration not stated) | inactive: 12.8% | –
40 | CC(C)(C)c1nc2ccccc2c(=O)n1N1C(=O)c2ccccc2C1=O | – | inconclusive [inhibitor, single point]
41 | Cc1ccc(C(=O)NCCNC(=O)COc2ccc(C)c(C)c2)cn1 | inactive: 3.67% | –
42 | CN(C)c1ccnc(N(Cc2ccccc2)Cc2ccccc2)c1C#N | – | inconclusive [inhibitor, single point]
43 | Cc1ccc(S(=O)(=O)c2ccc([N+](=O)[O-])cn2)cc1 | – | inconclusive [inhibitor, single point]
44 | O=C(COC(=O)c1cc[n+]([O-])cc1)Nc1ccc([N+](=O)[O-])cc1C(F)(F)F | – | inconclusive [inhibitor, single point]
45 | Cn1nc(C(F)(F)F)c2cc(C(=O)Nc3ccc(F)cc3F)sc21 | – | inconclusive [inhibitor, partial curve]
46 | CCOc1ccc(NC(=O)c2sc3nc4n(c(=O)c3c2C)CCC4)cc1 | – | inconclusive [inhibitor, partial curve]
47 | Cc1ccc(NC(=O)C(C)N=C2NS(=O)(=O)c3ccccc32)cc1 (configuration not stated) | inactive: 36.3% | –
48 | COc1ccc(S(=O)(=O)N2CCC(C(=O)Nc3ccc(F)cc3)CC2)c2cccnc12 | – | inconclusive [inhibitor, single point]

Row | SMILES | activity change, negative = inhibition | Potency
49 | COc1cc(C(C2=C(O)CC(C)(C)CC2=O)C2C(=O)CC(C)(C)CC2=O)cc(OC)c1OC (configuration not stated) | inactive: 0.521% | –
50 | Cc1ccc([N+](=O)[O-])cc1-c1ccc(/C=N/NC(=O)c2cc3c(ccc4ccccc43)o2)o1 | – | inconclusive [inhibitor, full curve]
51 | COC(=O)c1c(C(=O)OC)c(-c2cccc(F)c2)n2c1CS(=O)C2 (configuration not stated) | inactive: 13.8% | –
52 | CCOC(=O)Cc1csc(NC(=S)NC(=O)C(C)(C)C)n1 | – | inconclusive [inhibitor, partial curve]
53 | O=c1c(F)cn(C2CCCO2)c(=O)n1Cc1ccc(Cl)cc1 (configuration not stated) | inactive: 14.3% | –
54 | CCCCn1c(O)c(C(C)=NCCCn2ccnc2)c(=O)[nH]c1=O | inactive: 8.64% | –
55 | CC1=C(C(=O)OCC2CCCO2)C(c2cccc(C(F)(F)F)c2)C2=C(CC(c3ccco3)CC2=O)N1 (configuration not stated) | – | inconclusive [inhibitor, single point]
56 | CCCNC(=O)COC(=O)c1c2c(nc3ccccc13)CCC2 | – | inconclusive [inhibitor, single point]
57 | CC(=O)Nc1ccc(NC(=O)C(C)Sc2nnc(C3CC3)n2-c2ccccc2)cc1 (configuration not stated) | inactive: 6.47% | –
58 | CCN1C[C@@H]2[C@@H]3C(=O)N(Cc4ccccc4)C(=O)[C@@H]3[C@](C)(C1=O)N2C(=O)c1ccc(C(F)(F)F)cc1 | inactive: 11.5% | –
59 | Cc1ccn2c(CNCC3OCCc4ccccc43)c(C(=O)N3CCCCCC3)nc2c1 (configuration not stated) | inactive: -11.5% | –
60 | Cn1c(-c2ccc(F)cc2)cnc1SCC(=O)Nc1ccccc1 | – | inconclusive [inhibitor, partial curve, poor fit]
61 | O=C(c1ccc2ncsc2c1)N1CCN(c2nc3ccccc3s2)CC1 | – | active: 5.62 µM
62 | O=S(=O)(c1ccccc1)N1CCN(c2ccnc3cc(Cl)ccc23)CC1 | – | inconclusive [inhibitor, single point]
63 | CCOC(=O)N1CCN(C(=O)c2ccc(Cn3c(=S)[nH]c4cc(OCC)c(OCC)cc4c3=O)cc2)CC1 | – | inconclusive [inhibitor, partial curve]
64 | Cc1ccc(NCc2ccccc2O)cc1 | – | inconclusive [inhibitor, single point]
65 | COc1ccc(C2(O)CCN(CCCCOc3ccccc3)CC2)cc1 | – | inconclusive [inhibitor, single point]
66 | O=C(NCc1ccco1)C1CCN(S(=O)(=O)N2CCOCC2)CC1 | inactive: 14.2% | –
67 | CSc1nsc(NC(=O)Nc2ccccc2)n1 | inactive: -15.8% | –
68 | CCN(Cc1ccccc1)C(=O)c1cccc(S(=O)(=O)N2CCN(Cc3ccccc3)CC2)c1 | – | inconclusive [inhibitor, single point]
69 | CC(C)c1cc(C(=O)N2CCN(C(c3ccccc3)c3ccccc3)CC2)no1 | – | inconclusive [inhibitor, single point]
70 | CCCS(=O)(=O)n1nc(-c2ccc(OC)cc2OC)cc1N | inactive: 3.25% | –
71 | CC(=O)Nc1cccc(Oc2nc(C(F)(F)F)nc3ccccc23)c1 | inactive: -14.1% | –
72 | O=C(/C=C/c1ccccc1[N+](=O)[O-])NCCCN1CCCC1=O | inactive: 16.2% | –

Source: PubChem BioAssay AID651820 (National Center for Advancing Translational Sciences (NCATS), 2012)
